According to PubChem BioAssay (Tox21):
“And” between values parts separate entries of the source, which are not always exact repeats. Equal entries are not always repeated. The source made the active and inactive calls. Unless noted, calls follow the shape of the dose curve; as a rule, active = well fitted curve in the direction sought with a large enough effect in the repeat runs; inconclusive = weak or mixed curves; inactive = no such curve, though single readings can be large; an effect the other way counts as inactive or inconclusive.

Tests used:
[1] = molecular target: Androgen receptor (Homo sapiens) (UniProt P10275); assay: qHTS assay to identify small molecule antagonists of the androgen receptor (AR) signaling pathway using the MDA cell line (AID 743042; also: nearly all actives have a fitted effect of over 55% in size)
Chain of UniProt P10275 (P10275 whole entry, looked up): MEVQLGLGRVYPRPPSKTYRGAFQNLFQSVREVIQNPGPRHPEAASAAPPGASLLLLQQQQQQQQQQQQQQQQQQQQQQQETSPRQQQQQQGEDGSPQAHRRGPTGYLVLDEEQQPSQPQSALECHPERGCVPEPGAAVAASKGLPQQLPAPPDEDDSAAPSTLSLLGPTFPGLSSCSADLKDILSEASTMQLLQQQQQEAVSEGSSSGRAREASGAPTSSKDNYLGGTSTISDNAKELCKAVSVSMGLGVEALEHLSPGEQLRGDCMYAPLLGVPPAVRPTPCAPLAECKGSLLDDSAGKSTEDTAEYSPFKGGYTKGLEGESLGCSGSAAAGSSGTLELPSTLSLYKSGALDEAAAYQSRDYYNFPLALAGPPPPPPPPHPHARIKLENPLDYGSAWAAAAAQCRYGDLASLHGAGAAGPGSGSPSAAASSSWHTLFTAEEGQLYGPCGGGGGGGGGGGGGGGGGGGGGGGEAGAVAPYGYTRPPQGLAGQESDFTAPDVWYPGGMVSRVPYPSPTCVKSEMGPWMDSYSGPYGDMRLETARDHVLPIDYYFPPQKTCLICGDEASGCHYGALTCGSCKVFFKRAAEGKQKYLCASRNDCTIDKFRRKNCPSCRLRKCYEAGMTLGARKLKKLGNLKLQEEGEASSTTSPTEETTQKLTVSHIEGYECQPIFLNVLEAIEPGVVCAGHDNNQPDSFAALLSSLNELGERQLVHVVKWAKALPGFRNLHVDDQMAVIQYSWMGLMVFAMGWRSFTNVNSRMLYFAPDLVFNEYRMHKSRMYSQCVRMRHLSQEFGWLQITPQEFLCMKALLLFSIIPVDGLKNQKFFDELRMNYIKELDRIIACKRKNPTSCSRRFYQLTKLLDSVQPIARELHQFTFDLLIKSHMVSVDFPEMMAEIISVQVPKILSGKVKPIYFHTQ
Procedure, shortened: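 Antagonist mode: compounds plus R1881 agonist added to MDA-kb2 AR-luc cells, incubated 16 h at 37C. Luciferase reporter luminescence quantified, with multiplexed CellTiter-Fluor readout for cell viability.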

[2] = qHTS assay to identify small molecule antagonists of the thyroid receptor (TR) signaling pathway - cell viability counter screen (AID 743064); conditions: GH3.TRE-Luc viability, CellTiter-Fluor, 24 h; also: nearly all actives have a fitted effect of over 50% in size; as to activity change, negative = cytotoxic: % is scaled to controls: 0 for no effect and ±100 for the full control effect
Procedure, shortened: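 Same-well viability check: GH3.TRE-Luc cells stimulated with 1 nM T3 alongside test compound for 23.5 h, followed by CellTiter-Fluor fluorescence.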

[3] = system: thyroid hormone receptor (rat, GH3 cells); assay: qHTS assay to identify small molecule agonists of the thyroid receptor (TR) signaling pathway (AID 743066; calls by dose curve); conditions: GH3.TRE-Luc cells, TR agonist luciferase, 24 h; activation: at 83.9 µM (top of the series) unless noted
[4] = molecular target: Estrogen receptor (Homo sapiens) (UniProt P03372); assay: qHTS assay to identify small molecule antagonists of the estrogen receptor alpha (ER-alpha) signaling pathway (AID 743069; active = well fitted curve in the direction sought with a large enough effect in the signal ratio in the repeat runs, not every such curve was filed as active; inconclusive = weak or mixed curves, or effect the other way; inactive = no such curve, though single readings can be large or run the other way; the % refers to the signal ratio); conditions: HEK293 ER-alpha-UAS-bla, beta-lactamase ratio, antagonist mode; activity, negative = inhibition: at 69.4 µM (top of the series) unless noted
Chain of UniProt P03372 (P03372 whole entry, looked up): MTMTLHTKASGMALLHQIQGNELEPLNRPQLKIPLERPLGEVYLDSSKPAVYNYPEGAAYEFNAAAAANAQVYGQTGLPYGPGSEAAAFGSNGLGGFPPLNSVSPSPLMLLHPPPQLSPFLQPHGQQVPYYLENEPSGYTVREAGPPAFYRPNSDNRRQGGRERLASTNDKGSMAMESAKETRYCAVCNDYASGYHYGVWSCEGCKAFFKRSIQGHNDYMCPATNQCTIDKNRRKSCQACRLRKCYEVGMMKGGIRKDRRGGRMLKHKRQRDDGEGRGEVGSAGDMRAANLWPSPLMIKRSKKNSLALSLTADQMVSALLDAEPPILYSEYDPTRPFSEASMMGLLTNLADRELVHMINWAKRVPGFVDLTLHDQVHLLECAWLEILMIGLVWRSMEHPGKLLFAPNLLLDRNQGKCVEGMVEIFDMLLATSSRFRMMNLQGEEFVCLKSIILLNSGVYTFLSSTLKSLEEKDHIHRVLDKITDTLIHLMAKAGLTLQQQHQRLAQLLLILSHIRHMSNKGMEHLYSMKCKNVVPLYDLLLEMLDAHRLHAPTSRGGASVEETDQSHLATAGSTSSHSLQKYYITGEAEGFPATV
Procedure, shortened: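 ER-alpha-UAS-bla GripTite HEK293 line; 2% charcoal-stripped FBS overnight; plated, 4 hr 37C/5% CO2; cpd in DMSO + 17beta-estradiol, 18 hr 37C; LiveBLAzer B/G FRET substrate 2 hr RT; fluorescence intensity.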

[5] = molecular target: Estrogen receptor (Homo sapiens) (UniProt P03372); assay: qHTS assay to identify small molecule agonists of the estrogen receptor alpha (ER-alpha) signaling pathway using the BG1 cell line (AID 743079); conditions: BG1Luc4E2 cells, ERE-luciferase agonist, 22 h; activation: at 70.3 µM (top of the series) unless noted; also: nearly all actives have a fitted effect of over 20% in size; as to activation: % is scaled to controls: 0 for no effect and ±100 for the full control effect
[6] = qHTS assay to identify small molecule antagonists of the estrogen receptor alpha (ER-alpha) signaling pathway using the BG1 cell line (AID 743080; calls by dose curve;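 also: BG1 cells stimulated with 17beta-estradiol alongside compound; nearly all actives have a fitted effect of over 25% in size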); conditions: BG1Luc4E2 ERE-luciferase antagonist mode, luminescence; activity change, negative = inhibition: at 70.3 µM (top of the series) unless noted
Procedure, shortened: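 BG1-Luc-4E2 cells (endogenous full-length ER-alpha, stable 4×ERE-luciferase) were starved 5 days in phenol-red-free medium with 10% charcoal-stripped FBS, plated 24 h, then given compound plus 17beta-estradiol for 21.5 h at 37 C; ONE-Glo luminescence read after 30 min.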

[7] = qHTS assay to identify small molecule antagonists of the estrogen receptor alpha (ER-alpha) signaling pathway using the BG1 cell line - cell viability counter screen (AID 743081); conditions: BG1Luc4E2 viability, CellTiter-Fluor, 22 h; activity change, negative = cytotoxicity: at 70.3 µM (top of the series);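 also: compound given together with 17beta-estradiol as the ER stimulus; nearly all actives have a fitted effect of over 45% in size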
[8] = qHTS assay to identify aromatase inhibitors - cell viability counter screen (AID 743084); conditions: MCF-7 aro ERE viability, CellTiter-Fluor, 24 h; activity change, negative = cytotoxicity: at 70.3 µM (top of the series) unless noted;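 also: cells stimulated with testosterone during compound exposure; nearly all actives have a fitted effect of over 55% in size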
[9] = qHTS assay to identify small molecule antagonists of the androgen receptor (AR) signaling pathway using the MDA cell line - cell viability counter screen (AID 743041; also: nearly all actives have a fitted effect of over 45% in size; as to viability change, negative = cytotoxic: % is scaled to controls: 0 for no effect and ±100 for the full control effect); conditions: MDA-kb2 viability, CellTiter-Fluor, 16 h, cells co-treated with R1881 androgen agonist; viability change, negative = cytotoxic: at 70.3 µM (top of the series) unless noted
Procedure, shortened: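 Cells were plated at 3,000 per well and left 5 h. Compounds in DMSO were then pinned in, followed by R1881. After 16 h at 37C, CellTiter-Fluor fluorescence gave viability.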

[10] = qHTS assay to identify small molecule antagonists of the estrogen receptor alpha (ER-alpha) signaling pathway - cell viability counter screen (AID 743074; calls by dose curve;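 also: HEK293 cells carrying ER-alpha-UAS-bla reporter stimulated with 17beta-estradiol; nearly all actives have a fitted effect of over 45% in size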)
[11] = molecular target: Peroxisome proliferator-activated receptor gamma (Homo sapiens) (UniProt P37231); assay: qHTS assay to identify small molecule agonists of the peroxisome proliferator-activated receptor gamma (PPARg) signaling pathway (AID 743094; active = well fitted activation curve with a large enough effect in the signal ratio in the repeat runs, not every such curve was filed as active; inconclusive = weak or mixed curves, or effect the other way; inactive = no such curve, though single readings can be large or run the other way; the % refers to the signal ratio; as to activation: % is scaled to controls: 0 for no effect and ±100 for the full control effect); conditions: HEK293H PPARg-UAS-bla, beta-lactamase FRET ratio, 17 h; activation: at 57 µM (top of the series) unless noted
Chain of UniProt P37231 (P37231 whole entry, looked up): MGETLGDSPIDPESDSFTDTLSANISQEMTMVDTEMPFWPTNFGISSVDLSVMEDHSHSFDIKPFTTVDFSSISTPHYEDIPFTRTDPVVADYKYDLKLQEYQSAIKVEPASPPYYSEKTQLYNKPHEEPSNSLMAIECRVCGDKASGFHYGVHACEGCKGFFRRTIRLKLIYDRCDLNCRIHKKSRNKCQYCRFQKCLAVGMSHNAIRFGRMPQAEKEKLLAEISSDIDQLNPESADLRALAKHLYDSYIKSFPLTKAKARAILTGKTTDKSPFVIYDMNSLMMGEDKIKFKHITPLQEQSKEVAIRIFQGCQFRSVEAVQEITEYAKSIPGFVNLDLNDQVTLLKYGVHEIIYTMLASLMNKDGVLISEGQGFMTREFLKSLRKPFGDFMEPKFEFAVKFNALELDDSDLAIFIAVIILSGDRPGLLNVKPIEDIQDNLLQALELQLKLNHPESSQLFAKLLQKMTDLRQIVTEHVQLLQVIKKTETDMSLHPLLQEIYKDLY
Procedure, shortened: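 Beta-lactamase FRET fluorescence was the read-out after a 1 h room-temperature substrate step, following 17 h compound treatment at 37C of HEK293H cells expressing a UAS-driven bla reporter responsive to PPARg.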

[12] = qHTS assay to identify small molecule that activate the aryl hydrocarbon receptor (AhR) signaling pathway - cell viability counter screen (AID 743086); also: nearly all actives have a fitted effect of over 45% in size
Procedure, shortened: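 Cytotoxicity counter screen: CellTiter-Fluor signal (30 min, 37 C) in 4000 HepG2 cells/well carrying the DRE-luciferase reporter, following 24 h compound exposure at 37 C.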

Aromatase (Homo sapiens) = Aromatase (Homo sapiens) (UniProt P11511); assay: qHTS assay to identify aromatase inhibitors (AID 743083); conditions: MCF-7 aro ERE, testosterone-driven ERE luciferase, 24 h; activity, negative = inhibition: at 70.3 µM (top of the series); also: nearly all actives have a fitted effect of over 55% in size
Chain of UniProt P11511 (P11511 whole entry, looked up): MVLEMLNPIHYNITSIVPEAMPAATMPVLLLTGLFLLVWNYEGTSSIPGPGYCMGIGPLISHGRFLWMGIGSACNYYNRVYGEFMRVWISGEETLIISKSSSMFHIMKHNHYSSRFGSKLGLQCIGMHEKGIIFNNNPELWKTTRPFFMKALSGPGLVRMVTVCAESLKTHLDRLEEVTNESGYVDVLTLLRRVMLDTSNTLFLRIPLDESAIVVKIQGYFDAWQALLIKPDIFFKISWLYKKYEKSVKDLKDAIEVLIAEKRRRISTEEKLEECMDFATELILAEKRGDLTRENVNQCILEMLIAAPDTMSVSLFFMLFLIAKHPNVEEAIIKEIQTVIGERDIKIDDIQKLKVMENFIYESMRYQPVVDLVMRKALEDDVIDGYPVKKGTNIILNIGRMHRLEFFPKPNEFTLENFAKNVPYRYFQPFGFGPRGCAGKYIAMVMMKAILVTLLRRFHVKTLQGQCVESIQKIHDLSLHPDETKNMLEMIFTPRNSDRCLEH

[13] = qHTS assay to identify small molecule antagonists of the thyroid receptor (TR) signaling pathway (AID 743065); also: nearly all actives have a fitted effect of over 55% in size
Procedure, shortened: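 Antagonism measured as loss of luciferase signal in GH3 cells stably carrying a TRE-luciferase reporter, co-treated with compound and T3 (1 nM final) for 23.5 h at 37 C. Viability was read in the same well by CellTiter-Fluor.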

[14] = molecular target: Aryl hydrocarbon receptor (Homo sapiens) (UniProt P35869); assay: qHTS assay to identify small molecule that activate the aryl hydrocarbon receptor (AhR) signaling pathway (AID 743085); also: nearly all actives have a fitted effect of over 15% in size
Chain of UniProt P35869 (P35869 whole entry, looked up): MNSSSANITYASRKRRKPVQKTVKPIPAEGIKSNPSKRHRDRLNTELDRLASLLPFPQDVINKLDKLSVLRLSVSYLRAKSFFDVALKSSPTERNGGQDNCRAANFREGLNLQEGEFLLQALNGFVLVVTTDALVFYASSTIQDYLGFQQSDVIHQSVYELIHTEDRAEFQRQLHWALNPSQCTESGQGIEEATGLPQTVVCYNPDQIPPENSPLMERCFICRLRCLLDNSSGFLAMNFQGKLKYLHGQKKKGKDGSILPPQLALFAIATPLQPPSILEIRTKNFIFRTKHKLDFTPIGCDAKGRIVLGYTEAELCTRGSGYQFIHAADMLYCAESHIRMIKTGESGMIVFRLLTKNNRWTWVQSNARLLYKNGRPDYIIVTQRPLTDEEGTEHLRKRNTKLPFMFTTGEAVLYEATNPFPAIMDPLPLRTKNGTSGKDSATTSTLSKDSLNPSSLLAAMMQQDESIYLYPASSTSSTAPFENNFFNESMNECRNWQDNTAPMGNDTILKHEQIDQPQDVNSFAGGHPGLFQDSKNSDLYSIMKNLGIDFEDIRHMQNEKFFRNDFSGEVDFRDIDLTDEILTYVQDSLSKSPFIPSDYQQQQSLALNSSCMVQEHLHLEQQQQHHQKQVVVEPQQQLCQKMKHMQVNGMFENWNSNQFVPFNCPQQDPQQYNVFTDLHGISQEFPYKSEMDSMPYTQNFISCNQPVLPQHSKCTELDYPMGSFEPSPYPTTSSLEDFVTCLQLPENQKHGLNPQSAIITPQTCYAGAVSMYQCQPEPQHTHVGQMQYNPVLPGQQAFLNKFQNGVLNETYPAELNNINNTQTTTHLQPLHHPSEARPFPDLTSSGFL
Procedure, shortened: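 Reporter assay in engineered HepG2 line HG2L7.5c1, whose plasmid carries twenty dioxin responsive elements upstream of firefly luciferase. Treatment lasted 24 h at 37C; ONE-Glo luminescence gauged induction.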

[15] = molecular target: Estrogen receptor (Homo sapiens) (UniProt P03372); assay: qHTS assay to identify small molecule agonists of the estrogen receptor alpha (ER-alpha) signaling pathway (AID 743075; calls by dose curve;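 also: HEK293 GripTite cells with ER-alpha and UAS-driven beta-lactamase reporter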)
[16] = activity change, negative = cytotoxic: at 70.3 µM (top of the series) unless noted
Potency is read from the fitted curve at half-maximal effect; tags tell the direction and shape of the fitted curve or compound fluorescence and quenching.

N#Cc1nn(-c2c(Cl)cc(C(F)(F)F)cc2Cl)c(N)c1S(=O)C(F)(F)F (configuration not stated)
Potency [1]: inconclusive: 0.0021 µM [inhibitor, full curve] | Potency [2, 16]: active: 29.8 µM and active: 61.5 µM | Potency [3]: inconclusive: 13.8 µM [inhibitor, partial curve, poor fit] | Potency [4]: inconclusive: 26.8 µM and active: 17.5 µM [inconclusive] | Potency [5]: inconclusive: 23.7 µM [inhibitor, partial curve] and inconclusive: 5.48 µM [inhibitor, full curve] | Potency [6]: active: 7.5 µM and active: 24.5 µM | Potency [7]: inconclusive: 37.6 µM [cytotoxic, partial curve, poor fit] | Potency [8]: inconclusive: 30.8 µM [cytotoxic, partial curve]

CN=C=O
Potency [2, 16]: inconclusive: 69.6 µM [rising, single point]

Cc1ccccc1N
Potency [9]: inactive | Potency [10]: inconclusive: 24.4 µM [cytotoxic, single point] and inactive

CCN(CC)C(=O)SCc1ccc(Cl)cc1
viability change, negative = cytotoxic [9]: inconclusive: 30.1% | Potency [5]: inconclusive: 12.2 µM [activator, partial curve, poor fit] | Potency [6]: inconclusive: 8.63 µM [rising, full curve, poor fit]

CCCCCON=O
Potency [9]: inconclusive: 27.4 µM [rising, single point] | Potency [10]: inconclusive: 61.9 µM [rising, partial curve, poor fit]

C=CCN1CC[C@]23c4c5ccc(O)c4O[C@H]2C(=O)CC[C@@]3(O)[C@H]1C5
activity change, negative = cytotoxic [2, 16]: inconclusive: 34.5% | activity change, negative = cytotoxic ([2]; at 70.3 µM (top of the series)): inactive: 13%

NC(=O)CI
Potency [2, 16]: inactive

COc1cc(CC(C)N)cc(OC)c1OC (configuration not stated)
Potency [9]: inconclusive: 83.2 µM [cytotoxic, partial curve, poor fit] | Potency [10]: inconclusive: 74.8 µM [rising, single point] | Potency [5]: inactive | Potency [7]: inconclusive: 74.2 µM [cytotoxic, partial curve, poor fit] | activation [11]: inconclusive: -12.3% [at 78.9 µM]

CN
Potency [2, 16]: inactive

O=NN1CCCCCC1
Potency [2, 16]: inactive

CC1C=[C-]C=C1.[C-]#[O+].[C-]#[O+].[C-]#[O+].[Mn]
activity change, negative = cytotoxic [2, 16]: inconclusive: 30.9%

Clc1cccc(SC2CCNCC2)n1
Potency [9]: inconclusive: 33.5 µM [cytotoxic, single point] | Potency [4]: inconclusive: 26.8 µM | Potency [12]: active: 29.8 µM | activation [11]: inconclusive: 9.48%

COP(=O)(OC)Oc1ccc([N+](=O)[O-])cc1
Potency [9]: inconclusive: 68.6 µM [cytotoxic, partial curve, poor fit] | Potency [10]: inconclusive: 49 µM [cytotoxic, single point] | Potency (Aromatase (Homo sapiens)): active: 34.4 µM | Potency [11]: inconclusive: 7.76 µM [falling, partial curve, poor fit]

S=C1NCCN1
Potency [2, 16]: inconclusive: 60.1 µM [rising, partial curve, poor fit] and inconclusive: 38.6 µM [rising, partial curve, poor fit]

CON(C)C(=O)Nc1ccc(Br)c(Cl)c1
Potency [2, 16]: inconclusive: 6.11 µM [rising, single point] | Potency [13]: inconclusive: 68.6 µM [inhibitor, single point]

Oc1cccc(Cl)c1Cl
Potency [2, 16]: inconclusive: 27.4 µM [rising, single point]

Cc1ccc(N)cc1C
Potency [9]: inactive | Potency [5]: active: 49 µM | Potency (Aromatase (Homo sapiens)): inactive | Potency [14]: inconclusive: 49 µM [activator, partial curve]

CCOC(=O)NC(C)(C)Cc1ccc(Cl)cc1
Potency [1]: inactive | Potency [10]: inconclusive: 10.7 µM [rising, partial curve, poor fit]

CCOC(=O)c1cncn1C(C)c1ccccc1 (configuration not stated)
Potency [2, 16]: inconclusive: 11.4 µM [rising, partial curve, poor fit]

CCOP(O)OCC
Potency [9]: inactive | Potency [10]: inconclusive: 9.77 µM [rising, full curve, poor fit] | Potency [11]: inactive

C#CCN1C(=O)COc2cc(F)c(N3C(=O)C4=C(CCCC4)C3=O)cc21
Potency [1]: inconclusive: 68.6 µM [inhibitor, single point] | Potency [4]: inactive | Potency [5]: inactive | Potency [6]: inactive

Nc1nc(N)nc(Cl)n1
Potency [2, 16]: inactive

Nc1ccc(Sc2ccc(N)cc2)cc1
Potency [9]: inconclusive: 68.6 µM [rising, partial curve, poor fit] | Potency [10]: inconclusive: 0.49 µM [rising, full curve, poor fit] | Potency [15]: active: 0.219 µM [inconclusive] | Potency [5]: inconclusive: 10.9 µM [activator] | Potency [7]: inconclusive: 30.6 µM [cytotoxic, partial curve, poor fit] | Potency (Aromatase (Homo sapiens)): inconclusive: 44.5 µM [inhibitor] | Potency [8]: inconclusive: 12.2 µM [rising, full curve, poor fit] | Potency [11]: inconclusive: 24.5 µM [partial curve, poor fit]
